This is one part of the list. Repeats are few or missing, and single values can be far off.
These compounds were tested on UACC257 (assay: cell count relative to DMSO control; melanoma cells; higher = more viable cells). Conditions: library dose: standard library concentration; 72 h.
With `Cn1cc(C2=C(c3cn(C4CCN(Cc5ccccn5)CC4)c4ccccc34)C(=O)NC2=O)c2ccccc21` [Enzastaurin] + CN1CCN(c2ccc3nc(-c4c(N)c5c(F)cccc5[nH]c4=O)[nH]c3c2)CC1 [Dovitinib] (first compound 4 µM, partner dose 0.5 µM) the cell count was 69.1%.
In the case of `Cn1cc(C2=C(c3cn(C4CCN(Cc5ccccn5)CC4)c4ccccc34)C(=O)NC2=O)c2ccccc21` [Enzastaurin] + C[C@@H](Oc1cc(-c2cnn(C3CCNCC3)c2)cnc1N)c1c(Cl)ccc(F)c1Cl [Crizotinib] (first compound 4 µM, partner dose 1 µM), the cell count is reported as 80%.
`C[As](C)SC[C@H](NC(=O)CC[C@H](N)C(=O)O)C(=O)NCC(=O)O` [Darinaparsin] + Cc1cc(SCc2sc(-c3ccc(C(F)(F)F)c(F)c3)nc2C)ccc1OCC(=O)O [GW0742] (first compound 2 µM, partner dose 10 µM) was tested, and the cell count was 103%.
In the case of `C[C@]12O[C@H](C[C@]1(O)CO)n1c3ccccc3c3c4c(c5c6ccccc6n2c5c31)CNC4=O` [Lestaurtinib] + O=C(O)c1ccc2c(c1)nc(Nc1cccc(Cl)c1)c1ccncc12 [CX4945] (first compound 0.02 µM, partner dose 2 µM), the cell count is reported as 94.8%.
With `N.N.[Cl][Pt][Cl]` [cisplatin] + Clc1ccc(Nc2nnc(Cc3ccncc3)c3ccccc23)cc1 [vatalanib] (first compound 8 µM, partner dose 10 µM) the cell count was 65.8%.
`Cn1cc(C2=C(c3cn(C4CCN(Cc5ccccn5)CC4)c4ccccc34)C(=O)NC2=O)c2ccccc21` [Enzastaurin] + COc1cc(Nc2ncc(F)c(Nc3ccc4c(n3)NC(=O)C(C)(C)O4)n2)cc(OC)c1OC [Tamatinib] (first compound 4 µM, partner dose 2 µM) gave a cell count of 87.6%.
In the case of `N.N.[Cl][Pt][Cl]` [cisplatin] + COc1cc(Nc2ncc(F)c(Nc3ccc4c(n3)NC(=O)C(C)(C)O4)n2)cc(OC)c1OC [Tamatinib] (first compound 8 µM, partner dose 2 µM), the cell count is reported as 65.1%.
With `C[C@]12O[C@H](C[C@]1(O)CO)n1c3ccccc3c3c4c(c5c6ccccc6n2c5c31)CNC4=O` [Lestaurtinib] + Nc1ncn([C@H]2C[C@H](O)[C@@H](CO)O2)c(=O)n1 [decitabine] (first compound 0.02 µM, partner dose 0.5 µM) the cell count was 102%.
`C[As](C)SC[C@H](NC(=O)CC[C@H](N)C(=O)O)C(=O)NCC(=O)O` [Darinaparsin] + CCc1ccc(CCOc2ccc(CC3SC(=O)NC3=O)cc2)nc1 [pioglitazone] (first compound 2 µM, partner dose 10 µM) was tested, and the cell count was 77.1%.
In the case of `C[As](C)SC[C@H](NC(=O)CC[C@H](N)C(=O)O)C(=O)NCC(=O)O` [Darinaparsin] + O=C1NC(=O)/C(=C/c2ccc(-c3ccc(F)cc3O)o2)S1 [AS252424] (first compound 2 µM, partner dose 5 µM), the cell count is reported as 102%.
`C[C@]12O[C@H](C[C@]1(O)CO)n1c3ccccc3c3c4c(c5c6ccccc6n2c5c31)CNC4=O` [Lestaurtinib] + COc1ccc(Cl)c(Nc2nc3ccccc3nc2NS(=O)(=O)c2cccc(NC(=O)C(C)(C)N)c2)c1 [XL147] (first compound 0.02 µM, partner dose 4 µM) gave a cell count of 83.1%.
Work on `Cn1cc(C2=C(c3cn(C4CCN(Cc5ccccn5)CC4)c4ccccc34)C(=O)NC2=O)c2ccccc21` [Enzastaurin] + OCc1c[nH]c2ccccc12 [Indole-3-carbinol] (first compound 4 µM, partner dose 4 µM) yielded a cell count of 105%.
For `C[As](C)SC[C@H](NC(=O)CC[C@H](N)C(=O)O)C(=O)NCC(=O)O` [Darinaparsin] + O=c1cc(-c2cccc3c2Sc2ccccc2S3)oc(N2CCOCC2)c1 [KU55933] (first compound 2 µM, partner dose 5 µM), the cell count was 83.1%.
Compound `Cn1cc(C2=C(c3cn(C4CCN(Cc5ccccn5)CC4)c4ccccc34)C(=O)NC2=O)c2ccccc21` [Enzastaurin] + Cc1cc(N2CCOCC2)cc2[nH]c(-c3c(NC[C@@H](O)c4cccc(Cl)c4)cc[nH]c3=O)nc12 [BMS536924] (first compound 4 µM, partner dose 1 µM) has a cell count of 104%.
`Cn1cc(C2=C(c3cn(C4CCN(Cc5ccccn5)CC4)c4ccccc34)C(=O)NC2=O)c2ccccc21` [Enzastaurin] + NC(=O)Nc1cc(-c2cccc(F)c2)sc1C(=O)N[C@H]1CCCNC1 [AZD7762] (first compound 4 µM, partner dose 0.1 µM) gave a cell count of 99.3%.
In the case of `N.N.[Cl][Pt][Cl]` [cisplatin] + CC(C)(C)c1cnc(CSc2cnc(NC(=O)C3CCNCC3)s2)o1 [SNS-032] (first compound 8 µM, partner dose 0.05 µM), the cell count is reported as 81.2%.
With `N.N.[Cl][Pt][Cl]` [cisplatin] + OCCn1cc(-c2cnc3nnn(Cc4ccc5ncccc5c4)c3n2)cn1 [PF04217903] (first compound 8 µM, partner dose 5 µM) the cell count was 86.4%.
Compound `Cn1cc(C2=C(c3cn(C4CCN(Cc5ccccn5)CC4)c4ccccc34)C(=O)NC2=O)c2ccccc21` [Enzastaurin] + N.N.[Cl][Pt][Cl] [cisplatin] (first compound 4 µM, partner dose 8 µM) has a cell count of 107%.
Work on `C[C@]12O[C@H](C[C@]1(O)CO)n1c3ccccc3c3c4c(c5c6ccccc6n2c5c31)CNC4=O` [Lestaurtinib] + OCCn1cc(-c2cnc3nnn(Cc4ccc5ncccc5c4)c3n2)cn1 [PF04217903] (first compound 0.02 µM, partner dose 5 µM) yielded a cell count of 113%.
Compound `Cn1cc(C2=C(c3cn(C4CCN(Cc5ccccn5)CC4)c4ccccc34)C(=O)NC2=O)c2ccccc21` [Enzastaurin] + COc1ccc(Cl)c(Nc2nc3ccccc3nc2NS(=O)(=O)c2cccc(NC(=O)C(C)(C)N)c2)c1 [XL147] (first compound 4 µM, partner dose 4 µM) has a cell count of 81.3%.
Compound `C[As](C)SC[C@H](NC(=O)CC[C@H](N)C(=O)O)C(=O)NCC(=O)O` [Darinaparsin] + O=C(O)c1ccc(-c2c[nH]c3ncc(-c4ccccc4)cc23)cc1C1CCCC1 [GSK650394] (first compound 2 µM, partner dose 0.8 µM) has a cell count of 72%.
Work on `C[As](C)SC[C@H](NC(=O)CC[C@H](N)C(=O)O)C(=O)NCC(=O)O` [Darinaparsin] + COc1cc2ncnc(Nc3ccc(Oc4ccccc4)cc3)c2cc1OC [SrcI1] (first compound 2 µM, partner dose 10 µM) yielded a cell count of 68.7%.
Compound `N.N.[Cl][Pt][Cl]` [cisplatin] + C=CCNC1=C2C[C@@H](C)C[C@H](OC)[C@H](O)[C@@H](C)/C=C(\C)[C@H](OC(N)=O)[C@@H](OC)/C=C\C=C(/C)C(=O)NC(=CC1=O)C2=O [Tanespimycin] (first compound 8 µM, partner dose 0.01 µM) has a cell count of 83.1%.
In the case of `C[C@]12O[C@H](C[C@]1(O)CO)n1c3ccccc3c3c4c(c5c6ccccc6n2c5c31)CNC4=O` [Lestaurtinib] + Cn1c(Nc2ccc(C(F)(F)F)cc2)nc2cc(Oc3ccnc(-c4ncc(C(F)(F)F)[nH]4)c3)ccc21 [CHIR265] (first compound 0.02 µM, partner dose 0.4 µM), the cell count is reported as 95.1%.
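Further: cells treated in 1,536-well plates, then fixed and DAPI-stained, with nuclei counted from automated high-throughput microscope images.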
